Among all 310,000 compounds or so, about 14,000 (4.5%) showed an effect of 50% or more. The effect is printed as a negative number. The list shows a part of the results.
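Further: peak tail current of the secondary pulse compared with the same well before compound.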

Chain of human ether-à-go-go-related gene (hERG) potassium channel (Q12809 whole entry, looked up): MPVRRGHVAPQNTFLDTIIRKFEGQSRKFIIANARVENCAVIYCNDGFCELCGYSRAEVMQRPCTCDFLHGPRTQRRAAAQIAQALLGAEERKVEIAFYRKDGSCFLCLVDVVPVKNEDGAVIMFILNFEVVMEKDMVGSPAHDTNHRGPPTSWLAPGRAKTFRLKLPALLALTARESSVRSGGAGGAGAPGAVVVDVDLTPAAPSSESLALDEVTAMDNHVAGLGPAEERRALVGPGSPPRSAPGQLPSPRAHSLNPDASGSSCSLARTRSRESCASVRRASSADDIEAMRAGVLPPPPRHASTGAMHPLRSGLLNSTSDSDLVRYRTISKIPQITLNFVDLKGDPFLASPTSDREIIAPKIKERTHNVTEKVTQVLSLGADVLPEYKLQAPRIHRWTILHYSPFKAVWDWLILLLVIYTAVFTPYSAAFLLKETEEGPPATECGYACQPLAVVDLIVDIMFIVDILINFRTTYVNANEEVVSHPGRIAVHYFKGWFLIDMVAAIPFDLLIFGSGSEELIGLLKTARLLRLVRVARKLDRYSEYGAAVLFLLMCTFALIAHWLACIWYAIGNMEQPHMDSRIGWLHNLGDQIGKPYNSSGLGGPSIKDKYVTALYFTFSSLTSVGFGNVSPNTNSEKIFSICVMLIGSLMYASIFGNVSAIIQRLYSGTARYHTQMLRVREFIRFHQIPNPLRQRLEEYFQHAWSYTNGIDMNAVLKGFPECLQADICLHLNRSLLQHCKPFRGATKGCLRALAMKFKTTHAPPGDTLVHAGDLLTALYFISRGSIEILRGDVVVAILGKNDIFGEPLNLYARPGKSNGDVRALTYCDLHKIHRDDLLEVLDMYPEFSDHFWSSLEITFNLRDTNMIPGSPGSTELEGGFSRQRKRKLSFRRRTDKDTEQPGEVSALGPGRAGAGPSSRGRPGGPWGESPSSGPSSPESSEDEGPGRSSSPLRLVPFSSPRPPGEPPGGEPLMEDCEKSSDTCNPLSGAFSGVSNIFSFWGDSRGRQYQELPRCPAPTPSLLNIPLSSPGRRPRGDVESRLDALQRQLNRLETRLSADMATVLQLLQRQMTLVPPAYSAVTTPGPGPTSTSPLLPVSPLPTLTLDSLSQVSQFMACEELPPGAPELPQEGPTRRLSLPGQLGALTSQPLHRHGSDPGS

This assay concerns the target human ether-à-go-go-related gene (hERG) potassium channel (human, UniProt Q12809). As to the kind of experiment: primary screen, population patch clamp on CHO cells stably expressing hERG.
As to `CC1(C)CC(=O)C=C(C(=O)N2CCCC(CCC(=O)NCc3ccccc3F)C2)O1` (stereo not drawn), the “hERG current change (%, negative = inhibition) at 10uM” value is reported as 14.5%.
Regarding `CCc1noc(C)c1C(=O)Nc1cc(S(=O)(=O)N2CCOCC2)ccc1N1CCN(CC)CC1`, the “hERG current change (%, negative = inhibition) at 10uM” value was -19.5%.
To `O=C(O)CCCNS(=O)(=O)c1ccc2ccccc2c1` belongs 20.2%; to `CCN(C(=O)c1cccc(S(=O)(=O)N2CCc3ccccc32)c1)C1CCS(=O)(=O)C1` (stereo not drawn), -18.2%; to `O=C(COC(=O)c1ccc(OC(F)(F)F)cc1)NCCN1C(=O)CSC1=O`, -36.7%.
To `COc1ccc(S(=O)(=O)NC(C)C(=O)N2CCCC2)cc1C` (stereo not drawn) belongs 16.8%.
Regarding `O=C(NCc1n[nH]c(=S)n1-c1cccc(C(F)(F)F)c1)c1ccc(S(=O)(=O)N2CCCCC2)cc1`, the “hERG current change (%, negative = inhibition) at 10uM” value turned out to be 16.5%.
To `Cc1ccc(NC(=O)c2ccccc2NC(=O)c2cccs2)cc1` belongs 20.1%; to `Cn1nc(C(F)(F)F)c(-c2ccc(F)cc2)c1NC(=O)CSCC(=O)O`, 4.94%; to `C=CCN(CC=C)CCCOc1ccc(Br)cc1Cl`, -30.2%.
To `CNC(=O)COC(=O)c1ccc(-c2nc3ccccc3s2)s1` belongs 4.63%.
`Cc1cc(C)nc(SCc2ccc(C(=O)N/N=C/c3ccccc3C(=O)O)cc2)n1`: the “hERG current change (%, negative = inhibition) at 10uM” value turned out to be 6.57%.
Consider `C/C(=N\NC(=S)NC(C)C)c1ccccc1OC(F)F`, for which the “hERG current change (%, negative = inhibition) at 10uM” value is recorded as 9.19%.
For `Cc1ccc2c(c1)N(CC(=O)NCC(C)c1ccccc1)C(=O)c1cccnc1O2` (stereo not drawn), the “hERG current change (%, negative = inhibition) at 10uM” value is -1.79%.
For the molecule `CCCCn1c(N)c(N(CC(C)C)C(=O)CSCC(=O)Nc2ccc(OC)cc2)c(=O)[nH]c1=O`, the “hERG current change (%, negative = inhibition) at 10uM” value was -7.53%.
Next, `CC(OC(=O)c1cc(-c2cccnc2)nc2ccccc12)C(=O)Nc1ccc2ccccc2c1` (stereo not drawn): -2.38%.
To `CCN(CC)c1ccc(C(=O)OCC(=O)Nc2cccc(S(=O)(=O)NC3=NCCCCC3)c2)cc1` belongs 7.02%; to `Cc1nn(-c2ccccc2)c(Cl)c1C(=O)Nc1ccc(N2CCOCC2)cc1`, -9.1%.
On to `Cc1ccc(S(=O)(=O)N2CCN(C(=O)CSc3ccccn3)CC2)c(C)c1`, for which the “hERG current change (%, negative = inhibition) at 10uM” value is -26.5%.
As for `CC(C)(C)n1nc2c(c1NC(=O)COc1ccc(Cl)cc1)CSC2`, the “hERG current change (%, negative = inhibition) at 10uM” value was -35.3%.
On to `COC(=O)C1=C(c2ccc(OCc3ccccc3)cc2)C[C@@H]2CC[C@H]1N2C(=O)NCc1cccc(C(F)(F)F)c1`, for which the “hERG current change (%, negative = inhibition) at 10uM” value is given as 8.1%.
As to `CCc1ccc(C(=O)Nc2ccc(C)c(NS(C)(=O)=O)c2)cc1`, the “hERG current change (%, negative = inhibition) at 10uM” value came to 5.88%.
For `COC(=O)c1c(NC(=O)C(C)C)sc(C(=O)N2CCOCC2)c1C`, the “hERG current change (%, negative = inhibition) at 10uM” value came out at 8.69%.
To `FC(F)(F)c1cccc(OCc2nnc3n2CCC3)c1` belongs 20.1%; to `COc1cc(C(=O)Nc2nncs2)cc(OC)c1OC`, 6.03%; to `O=C(Nc1ccc(S(=O)(=O)Nc2ncccn2)cc1)c1cccc(S(=O)(=O)N2CCCC2)c1`, -4.1%.
For the molecule `CC12CC(NC(=O)N1c1cccc(C(=O)N3CCN(c4ccccc4)CC3)c1)c1ccccc1O2` (stereo not drawn), the “hERG current change (%, negative = inhibition) at 10uM” value is on record as -11.7%.
With `CSc1nc(N)c2c(n1)OC(N)=C(C#N)C2c1cccnc1` (stereo not drawn), the “hERG current change (%, negative = inhibition) at 10uM” value is given as -4%.
To `Cl.NCCSC1CC(=O)N(c2ccc(Cl)c(Cl)c2)C1=O` (stereo not drawn) belongs 14.6%; to `CN(CC(=O)Nc1ccc(F)c(F)c1)S(=O)(=O)c1cccs1`, -10.6%; to `CC1CCN(C(=O)COC(=O)c2cc(Cl)c3c(c2)OCO3)CC1`, -7.67%.
For `CCCc1c(O)c2ccccc2n(-c2ccccc2)c1=O`, the “hERG current change (%, negative = inhibition) at 10uM” value is on record as 6.83%.
To `Oc1cccc(C2c3[nH]c4ccccc4c3CCN2Cc2cnn(-c3ccccc3)c2)c1` (stereo not drawn) belongs -35.3%.
Next, `CCCc1nnc(SCC(=O)N2CCCCC2C)n1CC1CCCO1` (stereo not drawn): 2.84%.
To `CCN(CC(=O)Nc1ccc2c(c1)OCCO2)C(=O)/C=C/c1ccc(OC)cc1OC` belongs -1.41%.
With `Cc1ccc(-c2cn(CCC(=O)O)c(-c3ccc(Cl)nc3)n2)cc1`, the “hERG current change (%, negative = inhibition) at 10uM” value is on record as 10.9%.
Regarding `COC(=O)C1=C(C(=O)OC)[C@@H]2Nc3ccccc3[C@@]23C[C@@H](C(=O)OC)N(C(=O)COCc2ccccc2)C3=N1`, the “hERG current change (%, negative = inhibition) at 10uM” value was -46.4%.
Turning to `CCCNC(=O)C(Cc1ccc(Cl)cc1)NC(=O)c1ccc(C#N)cc1` (stereo not drawn), the “hERG current change (%, negative = inhibition) at 10uM” value is recorded as -15.2%.
With `O=C(O)c1nc(NCc2ccccc2)ncc1Cl`, the “hERG current change (%, negative = inhibition) at 10uM” value amounted to 36.6%.
Next, `Cc1ccc(CNc2oc(C)nc2C#N)cc1`: -4.96%.
As to `Cc1cccc(CCNCc2cc3cc(C)cc(C)c3[nH]c2=O)c1`, the “hERG current change (%, negative = inhibition) at 10uM” value is reported as -30.8%.
Next, `Cc1ccc(C(C)C)c(OCC(=O)Nc2ccc(Cl)cn2)c1`: -8.82%; `Cc1cccc(N2CN(Cc3cccnc3)CNC2=S)c1C`: 3.54%; `O=C(NNC(=O)c1cnccc1C(F)(F)F)c1cccc(Cl)c1`: 13.1%.
Next, `COc1ccc2cc(C3OCCO3)c(Cl)nc2c1`: 0.328%; `CCN(C(=O)c1ccc(S(=O)(=O)N2CCCC2)cc1)C1CCS(=O)(=O)C1` (stereo not drawn): -4.5%.
For `CN(C)C=NC(=O)c1ccc(N2CCN(c3ncc(C(F)(F)F)cc3Cl)CC2)cc1`, the “hERG current change (%, negative = inhibition) at 10uM” value was determined as 7.74%.
For `O=C(Nc1ccccc1)c1ccc(S(=O)(=O)Nc2cccc(O)c2)cc1`, the “hERG current change (%, negative = inhibition) at 10uM” value is given as -37.8%.
To `C=CCN(CC=C)C(=O)c1ccc(OC2CCN(C(C)=O)CC2)c(OC)c1` belongs 14%; to `C/C(CCc1ccc2c(c1)OCO2)=N\NC(=O)c1ccccc1Cl`, -14.3%; to `Cc1cc2oc(=O)cc(CN3CCN(Cc4ccccc4)CC3)c2cc1Cl`, -22.8%.
With `COc1ccccc1N1CCN(C(=O)C(=O)N/N=C/c2ccccc2F)CC1`, the “hERG current change (%, negative = inhibition) at 10uM” value is on record as -3.77%.
In the case of `CC1CC(C)(C)CC2(C1)NC(=O)N(CC(=O)NCc1ccccc1F)C2=O` (stereo not drawn), the “hERG current change (%, negative = inhibition) at 10uM” value was -17.5%.
With `Cc1ccc(C(C(=O)NC(C)(C)C)N(C(=O)c2csnn2)C2CC2)cc1` (stereo not drawn), the “hERG current change (%, negative = inhibition) at 10uM” value is on record as 7.23%.
